Experimental data from PubChem BioAssay AID686979 (National Center for Advancing Translational Sciences (NCATS), 2013).
“And” between values parts separate entries of the source, which are not always exact repeats. Equal entries are not always repeated. Among all 420,000 compounds or so, about 50,000 (12%) were called active. Inconclusive results, whose numbers are uncertain, are shown with a selection of clear calls. Calls follow the shape of the dose curve; as a rule, active = well fitted inhibition curve with a large enough effect; inconclusive = small, poorly fitted or top-dose-only effect; inactive = flat fitted curve, though single readings scatter. Potencies beside an inconclusive call are fits to weak or partial responses and may not hold up. A structure can be active in one record and inactive in another.

Experiment: qHTS for Inhibitors of human tyrosyl-DNA phosphodiesterase 1 (TDP1): qHTS in cells in presence of CPT; also: nearly all actives have a fitted effect of over 55% in size
Conditions: chicken DT40 Tdp1-/-;hTDP1 cells + 20 nM CPT, ATP luminescence, 48 h; activity change, negative = growth inhibition: at 46.2 µM (top of the series)
Procedure, shortened: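 Chicken DT40 Tdp1-/- cells stably complemented with human TDP1 were seeded at 400 cells/well in medium containing 20 nM camptothecin, exposed to pin-transferred compounds, and grown at 37 °C for at least 48 hr. Viability was read as ATP luminescence.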
% is scaled to controls: 0 for no effect and ±100 for the full control effect; potency is read from the fitted curve at half-maximal effect; tags tell the direction and shape of the fitted curve.

Row | SMILES | Potency | activity change, negative = growth inhibition
1 | Cc1c(/C=N/N=C2\CCC3C4CCc5cc(O)ccc5C4CCC23C)cnn1C (stereo not given) | inconclusive: 29.1 µM [inhibitor, single point] | –
2 | COC(=O)c1ccc2nc(-c3ccc(Cl)cc3)c(Cc3cccc(Cl)c3)n2c1 | inconclusive: 18.4 µM [inhibitor, single point] | –
3 | Fc1ccc2[nH]c3c(c2c1)CN(C(=S)NCc1ccccc1)CC3 | – | inactive: -17.8%
4 | CN(CC(=O)Nc1cc(S(=O)(=O)N2CCCC2)ccc1Cl)Cc1nc2ccccc2c(=O)[nH]1 | inconclusive: 29.1 µM [inhibitor, single point] | –
5 | COC(=O)c1c(N(S(C)(=O)=O)S(C)(=O)=O)sc2c1CCN(c1ncc(C(F)(F)F)cc1Cl)C2 | inconclusive: 20.6 µM [inhibitor, single point] | –
6 | COc1ccc(NC(=O)CN(C)C(=O)C(Sc2ccccc2)c2ccccc2)cc1 (stereo not given) | active: 16.4 µM | –
7 | Cc1csc2c(SCC(=O)NNC(=O)C(Cl)Cl)ncnc12 | – | inactive: 18%
8 | CC(=O)c1cccc(OCc2cc(C(=O)N3C[C@@H](C)O[C@@H](C)C3)no2)c1 | inconclusive: 29.1 µM [inhibitor, single point] | –
9 | CCCCCCSc1ccc(-c2nc3ccc(C)cn3c2NCc2ccccc2)cc1 | inactive and active: 23.1 µM | –
10 | S=C(NCc1ccco1)Nc1ccc(Br)cc1Cl | – | inactive: -0.871%
11 | O=C1[C@H]2[C@@H](C(=O)N1c1cccc3ccccc13)C1(C(=O)c3ccccc3C1=O)N1CCC[C@@H]21 | – | inactive: -19.3%
12 | COc1cc2c(c(OC)c1OC)-c1ccc(SC)c(=O)cc1C(NC(=O)C(F)(F)F)CC2 (stereo not given) | active: 0.092 µM | –
13 | COCCn1nnnc1C(CC(C)C)N1CCN(C(=O)c2ccco2)CC1 (stereo not given) | inconclusive: 29.1 µM [inhibitor, single point] | –
14 | Brc1cccc(CNCCCN2CCOCC2)c1 | active: 23.1 µM | –
15 | Cc1ccccc1CNC(=O)CCSCc1cnn(-c2ccccc2)c1-n1cccc1 | inconclusive: 29.1 µM [inhibitor, single point] | –
16 | COc1ccc(OC)c(S(=O)(=O)N/N=C\c2c[nH]c3ccccc23)c1 | active: 18.4 µM | –
17 | COc1ccccc1C1CCN(C(=O)c2ccc(C(C)(C)C)cc2)CC1 | inconclusive: 25.9 µM [inhibitor, single point] | –
18 | COc1ccc(-c2sc3ccc(N4CCOCC4)cc3c2C#CCCO)cc1 | active: 6.51 µM | –

Row | SMILES | Potency | activity change, negative = growth inhibition
19 | COc1cc2[nH]c(=S)n(Cc3cccs3)c(=O)c2cc1OC | inconclusive: 18.4 µM [inhibitor, partial curve, poor fit] | –
20 | CCOC(=O)c1ccc(NC(=O)c2ccc(-c3cccc(Cl)c3C)o2)cc1 | inconclusive: 29.1 µM [inhibitor, single point] | –
21 | COc1ccc(Cl)cc1NC(=O)C(C)OC(=O)C1=NNC(=O)CC1 (stereo not given) | – | inactive: -12.9%
22 | CCOc1ccc(NC(=O)c2nc(S(=O)(=O)Cc3ccc(C)cc3)ncc2Cl)cc1 | active: 0.794 µM | –
23 | COc1ccc(C2c3c(-c4ccc(F)cc4)n[nH]c3C(=O)N2c2ccccc2)cc1OC (stereo not given) | inconclusive: 20.6 µM [inhibitor, single point] | –
24 | Cc1cccc(C)c1NC(=O)C(c1ccccc1)N1CCC1=O (stereo not given) | inconclusive: 29.1 µM [inhibitor, single point] | –
25 | CC(=O)NC1(C(F)(F)F)NC(=O)N(CCc2ccccc2)C1=O (stereo not given) | – | inactive: -1.66%
26 | Oc1c(Cl)cc(Cl)cc1Sc1cc(Cl)cc(Cl)c1O | inconclusive: 33.5 µM [inhibitor, single point] and inconclusive: 25.9 µM [inhibitor, single point] | –
27 | CCOc1cc(-c2nc(C)c(C(C)=O)n2O)ccc1OCC(=O)Nc1ccccc1 | – | inconclusive: -34% [inhibitor]
28 | O=C(CCn1c2c(c3ccccc31)CCCC2)NNC(=O)c1ccccc1Cl | inconclusive: 29.1 µM [inhibitor, single point] | –
29 | COc1ccccc1N(CC(=O)N1CCCCCC1)S(C)(=O)=O | – | inactive: 0.182%
30 | COc1ccc(C2c3c(oc4ccccc4c3=O)C(=O)N2c2nc(C)c(C)s2)cc1 (stereo not given) | – | inactive: 9.65%
31 | C[C@@]12C(=O)N(CCc3c[nH]c4ccccc34)CC(=O)N1[C@H]1c3ccccc3OC[C@@H]1[C@@H]2c1ccccc1 | inconclusive: 29.1 µM [inhibitor, single point] | –
32 | O=C(C1CCN(Cc2ccc(Cl)cc2)CC1)N1CCN(Cc2ccc3c(c2)OCO3)CC1 | active: 23.1 µM | –
33 | O=C(Nc1cccc([N+](=O)[O-])c1)C1C2CCCCC21 (stereo not given) | inconclusive: 29.1 µM [inhibitor, single point] | –
34 | CC1CN(C(=O)CCC(=O)NCc2ccc(Cl)cc2)c2ccccc2O1 (stereo not given) | – | inactive: -26.4%
35 | O=C(NCc1ccncc1)c1nc(-c2ccc(C(F)(F)F)cc2)no1 | active: 14.6 µM | –
